# Assay results: the supplement of paper PMC11876631
# ± gives the standard deviation of the averaged measurements. Laboratory Escherichia coli strains with one amino-acid change in an essential protein, pooled on minimal glucose agar with carbenicillin or gentamicin at twice the control MIC (plus kanamycin and chloramphenicol for the plasmids), 48 h. Fold change of barcode share against drug-free plates; higher = less susceptible. Active = above 20 in both replicates (the paper's putatively resistant). '<' = one read or none on drug, '>' = one read or none on a drug-free plate. Shares are relative, so most strains fall below 1 when a few take over. Listed are strains with at least 15 reads on both drug-free plates, and hits; most hits rest on fewer reference reads. Replicate rank correlation about 0.5. Edits are read from barcodes.
# B1: pdxB L106A (protein)
# chain: MKILVDENMPYARDLFSRLGEVTAVPGRPIPVAQLADADALMVRSVTKVNESLLAGKPIKFVGTATAGTDHVDEAWLKQAGIGFSAAPGCNAIAVVEYVFSSLLMAAERDGFSLYDRTVGIVGVGNVGRRLQARLEALGIKTLLCDPPRADRGDEGDFRSLDELVQRADILTFHTPLFKDGPYKTLHLADEKLIRSLKPGAILINACRGAVVDNTALLTCLNEGQKLSVVLDVWEGEPELNVELLKKVDIGTSHIAGYTLEGKARGTTQVFEAYSKFIGHEQHVALDTLLPAPEFGRITLHGPLDQPTLKRLVHLVYDVRRDDAPLRKVAGIPGEFDKLRKNYLERREWSSLYVICDDASAASLLCKLGFNAVHHPAR
# B2: pdxB V96W (protein)
# chain: MKILVDENMPYARDLFSRLGEVTAVPGRPIPVAQLADADALMVRSVTKVNESLLAGKPIKFVGTATAGTDHVDEAWLKQAGIGFSAAPGCNAIAVWEYVFSSLLMLAERDGFSLYDRTVGIVGVGNVGRRLQARLEALGIKTLLCDPPRADRGDEGDFRSLDELVQRADILTFHTPLFKDGPYKTLHLADEKLIRSLKPGAILINACRGAVVDNTALLTCLNEGQKLSVVLDVWEGEPELNVELLKKVDIGTSHIAGYTLEGKARGTTQVFEAYSKFIGHEQHVALDTLLPAPEFGRITLHGPLDQPTLKRLVHLVYDVRRDDAPLRKVAGIPGEFDKLRKNYLERREWSSLYVICDDASAASLLCKLGFNAVHHPAR
# B3: pdxB L106W (protein)
# chain: MKILVDENMPYARDLFSRLGEVTAVPGRPIPVAQLADADALMVRSVTKVNESLLAGKPIKFVGTATAGTDHVDEAWLKQAGIGFSAAPGCNAIAVVEYVFSSLLMWAERDGFSLYDRTVGIVGVGNVGRRLQARLEALGIKTLLCDPPRADRGDEGDFRSLDELVQRADILTFHTPLFKDGPYKTLHLADEKLIRSLKPGAILINACRGAVVDNTALLTCLNEGQKLSVVLDVWEGEPELNVELLKKVDIGTSHIAGYTLEGKARGTTQVFEAYSKFIGHEQHVALDTLLPAPEFGRITLHGPLDQPTLKRLVHLVYDVRRDDAPLRKVAGIPGEFDKLRKNYLERREWSSLYVICDDASAASLLCKLGFNAVHHPAR
# B4: pdxB L106Q (protein)
# chain: MKILVDENMPYARDLFSRLGEVTAVPGRPIPVAQLADADALMVRSVTKVNESLLAGKPIKFVGTATAGTDHVDEAWLKQAGIGFSAAPGCNAIAVVEYVFSSLLMQAERDGFSLYDRTVGIVGVGNVGRRLQARLEALGIKTLLCDPPRADRGDEGDFRSLDELVQRADILTFHTPLFKDGPYKTLHLADEKLIRSLKPGAILINACRGAVVDNTALLTCLNEGQKLSVVLDVWEGEPELNVELLKKVDIGTSHIAGYTLEGKARGTTQVFEAYSKFIGHEQHVALDTLLPAPEFGRITLHGPLDQPTLKRLVHLVYDVRRDDAPLRKVAGIPGEFDKLRKNYLERREWSSLYVICDDASAASLLCKLGFNAVHHPAR
# B5: pdxB L106D (protein)
# chain: MKILVDENMPYARDLFSRLGEVTAVPGRPIPVAQLADADALMVRSVTKVNESLLAGKPIKFVGTATAGTDHVDEAWLKQAGIGFSAAPGCNAIAVVEYVFSSLLMDAERDGFSLYDRTVGIVGVGNVGRRLQARLEALGIKTLLCDPPRADRGDEGDFRSLDELVQRADILTFHTPLFKDGPYKTLHLADEKLIRSLKPGAILINACRGAVVDNTALLTCLNEGQKLSVVLDVWEGEPELNVELLKKVDIGTSHIAGYTLEGKARGTTQVFEAYSKFIGHEQHVALDTLLPAPEFGRITLHGPLDQPTLKRLVHLVYDVRRDDAPLRKVAGIPGEFDKLRKNYLERREWSSLYVICDDASAASLLCKLGFNAVHHPAR
# B6: pdxB V96A (protein)
# chain: MKILVDENMPYARDLFSRLGEVTAVPGRPIPVAQLADADALMVRSVTKVNESLLAGKPIKFVGTATAGTDHVDEAWLKQAGIGFSAAPGCNAIAVAEYVFSSLLMLAERDGFSLYDRTVGIVGVGNVGRRLQARLEALGIKTLLCDPPRADRGDEGDFRSLDELVQRADILTFHTPLFKDGPYKTLHLADEKLIRSLKPGAILINACRGAVVDNTALLTCLNEGQKLSVVLDVWEGEPELNVELLKKVDIGTSHIAGYTLEGKARGTTQVFEAYSKFIGHEQHVALDTLLPAPEFGRITLHGPLDQPTLKRLVHLVYDVRRDDAPLRKVAGIPGEFDKLRKNYLERREWSSLYVICDDASAASLLCKLGFNAVHHPAR
# B7: panC I263A (protein)
# chain: MLIIETLPLLRQQIRRLRMEGKRVALVPTMGNLHDGHMKLVDEAKARADVVVVSIFVNPMQFDRPEDLARYPRTLQEDCEKLNKRKVDLVFAPSVKEIYPNGTETHTYVDVPGLSTMLEGASRPGHFRGVSTIVSKLFNLVQPDIACFGEKDFQQLALIRKMVADMGFDIEIVGVPIMRAKDGLALSSRNGYLTAEQRKIAPGLYKVLSSIADKLQAGERDLDEIITIAGQELNEKGFRADDIQIRDADTLLEVSETSKRAVALVAAWLGDARLIDNKMVELA
# B8: panC V141D (protein)
# chain: MLIIETLPLLRQQIRRLRMEGKRVALVPTMGNLHDGHMKLVDEAKARADVVVVSIFVNPMQFDRPEDLARYPRTLQEDCEKLNKRKVDLVFAPSVKEIYPNGTETHTYVDVPGLSTMLEGASRPGHFRGVSTIVSKLFNLDQPDIACFGEKDFQQLALIRKMVADMGFDIEIVGVPIMRAKDGLALSSRNGYLTAEQRKIAPGLYKVLSSIADKLQAGERDLDEIITIAGQELNEKGFRADDIQIRDADTLLEVSETSKRAVILVAAWLGDARLIDNKMVELA
# B9: panC V141W (protein)
# chain: MLIIETLPLLRQQIRRLRMEGKRVALVPTMGNLHDGHMKLVDEAKARADVVVVSIFVNPMQFDRPEDLARYPRTLQEDCEKLNKRKVDLVFAPSVKEIYPNGTETHTYVDVPGLSTMLEGASRPGHFRGVSTIVSKLFNLWQPDIACFGEKDFQQLALIRKMVADMGFDIEIVGVPIMRAKDGLALSSRNGYLTAEQRKIAPGLYKVLSSIADKLQAGERDLDEIITIAGQELNEKGFRADDIQIRDADTLLEVSETSKRAVILVAAWLGDARLIDNKMVELA
# B10: panM M112A (protein)
# chain: MKLTIIRLEKFSDQDRIDLQKIWPEYSPSSLQVDDNHRIYAARFNERLLAAVRVTLSGTEGALDSLRVREVTRRRGVGQYLLEEVLRNNPGVSCWWMADAGVEDRGVMTAFAQALGFTAQQGGWEKC
# B11: panM M112Q (protein)
# chain: MKLTIIRLEKFSDQDRIDLQKIWPEYSPSSLQVDDNHRIYAARFNERLLAAVRVTLSGTEGALDSLRVREVTRRRGVGQYLLEEVLRNNPGVSCWWMADAGVEDRGVMTAFQQALGFTAQQGGWEKC
# B12: panM V77Q (protein)
# chain: MKLTIIRLEKFSDQDRIDLQKIWPEYSPSSLQVDDNHRIYAARFNERLLAAVRVTLSGTEGALDSLRVREVTRRRGQGQYLLEEVLRNNPGVSCWWMADAGVEDRGVMTAFMQALGFTAQQGGWEKC
# B13: panM M112W (protein)
# chain: MKLTIIRLEKFSDQDRIDLQKIWPEYSPSSLQVDDNHRIYAARFNERLLAAVRVTLSGTEGALDSLRVREVTRRRGVGQYLLEEVLRNNPGVSCWWMADAGVEDRGVMTAFWQALGFTAQQGGWEKC
# B14: panM M112D (protein)
# chain: MKLTIIRLEKFSDQDRIDLQKIWPEYSPSSLQVDDNHRIYAARFNERLLAAVRVTLSGTEGALDSLRVREVTRRRGVGQYLLEEVLRNNPGVSCWWMADAGVEDRGVMTAFDQALGFTAQQGGWEKC
# B15: panM M112P (protein)
# chain: MKLTIIRLEKFSDQDRIDLQKIWPEYSPSSLQVDDNHRIYAARFNERLLAAVRVTLSGTEGALDSLRVREVTRRRGVGQYLLEEVLRNNPGVSCWWMADAGVEDRGVMTAFPQALGFTAQQGGWEKC
# B16: panM V77P (protein)
# chain: MKLTIIRLEKFSDQDRIDLQKIWPEYSPSSLQVDDNHRIYAARFNERLLAAVRVTLSGTEGALDSLRVREVTRRRGPGQYLLEEVLRNNPGVSCWWMADAGVEDRGVMTAFMQALGFTAQQGGWEKC
# B17: panM V77D (protein)
# chain: MKLTIIRLEKFSDQDRIDLQKIWPEYSPSSLQVDDNHRIYAARFNERLLAAVRVTLSGTEGALDSLRVREVTRRRGDGQYLLEEVLRNNPGVSCWWMADAGVEDRGVMTAFMQALGFTAQQGGWEKC
# B18: panM V77W (protein)
# chain: MKLTIIRLEKFSDQDRIDLQKIWPEYSPSSLQVDDNHRIYAARFNERLLAAVRVTLSGTEGALDSLRVREVTRRRGWGQYLLEEVLRNNPGVSCWWMADAGVEDRGVMTAFMQALGFTAQQGGWEKC
# Biological target: Escherichia coli (laboratory strain)
# Test: barcode share on antibiotic plates over drug-free plates; higher = less susceptible
# Settings: antibiotic: carbenicillin; 2× MIC (3.1 µg/mL)
# Experimental: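 A pool of E. coli strains, each edited to carry one amino-acid change in an essential protein, was grown for 48 h on minimal glucose agar with or without antibiotic; strain barcodes were sequenced; mean of two replicates.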
row,Protein,fold change of barcode share
1,B1,0.642 ± 0.035
2,B2,0.336 ± 0.09
3,B3,0.462 ± 0.23
4,B4,0.463 ± 0.22
5,B5,1.64 ± 0.31
6,B6,0.396 ± 0.063
7,B7,0.309 ± 0.042
8,B8,0.253 ± 0.02
9,B9,0.276 ± 0.061
10,B10,2.33 ± 0.45
11,B11,1.79 ± 0.19
12,B12,9.17 ± 3.2
13,B13,2.17 ± 0.52
14,B14,5.92 ± 2.8
15,B15,6.49 ± 2.9
16,B16,8.59 ± 1.7
17,B17,7.63 ± 3.9
18,B18,9.51 ± 0.3

# Same assay, conditions: antibiotic: gentamicin; 2× MIC (MIC 0.45 µg/mL)
row,Protein,fold change of barcode share
1,B1,< 0.014
2,B2,< 0.00274
3,B3,0.0189 ± 0.011
4,B4,< 0.0112
5,B6,0.00673 ± 0.006
6,B7,0.00614 ± 0.0024
7,B9,0.0134 ± 0.0043
8,B10,0.0264 ± 0.012
9,B11,0.0207 ± 0.004
10,B12,0.159 ± 0.1
11,B13,0.0356 ± 0.0053
12,B14,0.0978 ± 0.068
13,B15,0.0722 ± 0.083
14,B16,0.145 ± 0.057
15,B17,0.136 ± 0.0054
16,B18,0.0958 ± 0.098
